Patent publication US11130781B2, “Antimicrobial peptides and their use” (UNIVERSITEIT UTRECHT HOLDING B.V., priority 2017, dated 2021)
Part of at least one peptide drawing is inferred or uncertain, most often the ends. Where no end group is shown, it is not given here.

Tested on: Aspergillus fumigatus
Assay: Antifungal activity, metabolic activity (resazurin) of fungal spores
Conditions: Aspergillus fumigatus spores; peptide dilutions 2-5 μM; resazurin conversion

Substance	Antifungal activity (reduction in metabolic activity of fungal spores)
RRWVQRWIRRWRPKLQKKGI-NH2 [SEQ ID NO: 16]	++ (25-50%)
APKAMRRWVQRWIRRWRPRLQKKGI-NH2 [SEQ ID NO: 19]	+++ (50-75%)
APKAMWVQRWIRRWRPLQKKGI-NH2 [SEQ ID NO: 27]	+ (0-25% reduction in metabolic activity)
RRWVQRWIRRWRPKVLQKKGI-NH2 [SEQ ID NO: 14]	+ (0-25% reduction in metabolic activity)
RRWVQRWIRRWRKPV-NH2 [SEQ ID NO: 5, RRWVQRWIRRWRKPV]	0

Same assay, conditions: refers to tables 3 and 4

Substance	activity as an antifungal or antibacterial peptide, in words
APKAMWVQRWIRRWRPLQKKGI-NH2 [SEQ ID NO: 27]	weakly active

Tested on: Pseudomonas aeruginosa
Assay: Killing assay (colony count)
Conditions: Bronchial Epithelial Cell Medium; peptide 5 μM; 3 h

Substance	Antibacterial activity Pseudomonas aeruginosa BEPC
RRWVQRWIRRWRPKLQKKGI-NH2 [SEQ ID NO: 16]	+ (0-100 fold reduction in Colony Forming Units(CFU's) after treatment)
APKAMRRWVQRWIRRWRPRLQKKGI-NH2 [SEQ ID NO: 19]	++++
APKAMWVQRWIRRWRPLQKKGI-NH2 [SEQ ID NO: 27]	0
RRWVQRWIRRWRPKVLQKKGI-NH2 [SEQ ID NO: 14]	+ (0-100 fold reduction in Colony Forming Units(CFU's) after treatment)
RRWVQRWIRRWRKPV-NH2 [SEQ ID NO: 5, RRWVQRWIRRWRKPV]	0
RRWVQRWIRRWRPKVLQKKGI [SEQ ID NO: 15]	+ (0-100 fold reduction in Colony Forming Units(CFU's) after treatment)
RRWVQRWIRRWRPKV-NH2 [SEQ ID NO: 3, RRWVQRWIRRWRPKV]	0

Same assay, conditions: MHB medium; peptide 5 μM; 3 h at 37° C.

Substance	Killing efficacy, Pseudomonas aeruginosa
RRWVQRWIRRWRPKLQKKGI-NH2 [SEQ ID NO: 16]	++++
APKAMRRWVQRWIRRWRPRLQKKGI-NH2 [SEQ ID NO: 19]	++++
APKAMWVQRWIRRWRPLQKKGI-NH2 [SEQ ID NO: 27]	++ (100-1.000 fold)
RRWVQRWIRRWRPKVLQKKGI-NH2 [SEQ ID NO: 14]	++++
RRWVQRWIRRWRKPV-NH2 [SEQ ID NO: 5, RRWVQRWIRRWRKPV]	++++
RRWVQRWIRRWRPKVLQKKGI [SEQ ID NO: 15]	++ (100-1.000 fold)
RRWVQRWIRRWRPKV-NH2 [SEQ ID NO: 3, RRWVQRWIRRWRPKV]	++++

Same assay, conditions: MHB+0.9% NaCl pH 6.5; peptide 5 μM; 3 h

Substance	Antibacterial activity Pseudomonas aeruginosa NaCl 6.5
RRWVQRWIRRWRPKLQKKGI-NH2 [SEQ ID NO: 16]	0
APKAMRRWVQRWIRRWRPRLQKKGI-NH2 [SEQ ID NO: 19]	+ (0-100 fold reduction in Colony Forming Units(CFU's) after treatment)
APKAMWVQRWIRRWRPLQKKGI-NH2 [SEQ ID NO: 27]	0
RRWVQRWIRRWRPKVLQKKGI-NH2 [SEQ ID NO: 14]	0
RRWVQRWIRRWRKPV-NH2 [SEQ ID NO: 5, RRWVQRWIRRWRKPV]	0
RRWVQRWIRRWRPKVLQKKGI [SEQ ID NO: 15]	0
RRWVQRWIRRWRPKV-NH2 [SEQ ID NO: 3, RRWVQRWIRRWRPKV]	0

Same assay, conditions: MHB+0.9% NaCl pH 7.4; peptide 5 μM; 3 h

Substance	Antibacterial activity Pseudomonas aeruginosa NaCl 7.4
RRWVQRWIRRWRPKLQKKGI-NH2 [SEQ ID NO: 16]	+ (0-100 fold reduction in Colony Forming Units(CFU's) after treatment)
APKAMRRWVQRWIRRWRPRLQKKGI-NH2 [SEQ ID NO: 19]	+++ (1.000-100.000 fold)
APKAMWVQRWIRRWRPLQKKGI-NH2 [SEQ ID NO: 27]	0
RRWVQRWIRRWRPKVLQKKGI-NH2 [SEQ ID NO: 14]	+ (0-100 fold reduction in Colony Forming Units(CFU's) after treatment)
RRWVQRWIRRWRKPV-NH2 [SEQ ID NO: 5, RRWVQRWIRRWRKPV]	0
RRWVQRWIRRWRPKVLQKKGI [SEQ ID NO: 15]	0
RRWVQRWIRRWRPKV-NH2 [SEQ ID NO: 3, RRWVQRWIRRWRPKV]	0

Tested on: Staphylococcus aureus
Assay: Killing assay (colony count)
Conditions: Bronchial Epithelial Cell Medium; peptide 5 μM; 3 h

Substance	Antibacterial activity Staphylococcus aureus BEPC
RRWVQRWIRRWRPKLQKKGI-NH2 [SEQ ID NO: 16]	++ (100-1.000 fold)
APKAMRRWVQRWIRRWRPRLQKKGI-NH2 [SEQ ID NO: 19]	++++
APKAMWVQRWIRRWRPLQKKGI-NH2 [SEQ ID NO: 27]	+ (0-100 fold reduction in Colony Forming Units(CFU's) after treatment)
RRWVQRWIRRWRPKVLQKKGI-NH2 [SEQ ID NO: 14]	++ (100-1.000 fold)
RRWVQRWIRRWRKPV-NH2 [SEQ ID NO: 5, RRWVQRWIRRWRKPV]	+ (0-100 fold reduction in Colony Forming Units(CFU's) after treatment)
RRWVQRWIRRWRPKVLQKKGI [SEQ ID NO: 15]	++ (100-1.000 fold)
RRWVQRWIRRWRPKV-NH2 [SEQ ID NO: 3, RRWVQRWIRRWRPKV]	++ (100-1.000 fold)

Same assay, conditions: MHB medium; peptide 5 μM; 3 h at 37° C.

Substance	Killing efficacy, Staphylococcus aureus
RRWVQRWIRRWRPKLQKKGI-NH2 [SEQ ID NO: 16]	+ (0-100 fold reduction in Colony Forming Units (CFU's) after treatment)
APKAMRRWVQRWIRRWRPRLQKKGI-NH2 [SEQ ID NO: 19]	+ (0-100 fold reduction in Colony Forming Units (CFU's) after treatment)
APKAMWVQRWIRRWRPLQKKGI-NH2 [SEQ ID NO: 27]	0
RRWVQRWIRRWRPKVLQKKGI-NH2 [SEQ ID NO: 14]	+ (0-100 fold reduction in Colony Forming Units (CFU's) after treatment)
RRWVQRWIRRWRKPV-NH2 [SEQ ID NO: 5, RRWVQRWIRRWRKPV]	0
RRWVQRWIRRWRPKVLQKKGI [SEQ ID NO: 15]	0
RRWVQRWIRRWRPKV-NH2 [SEQ ID NO: 3, RRWVQRWIRRWRPKV]	++ (100-1.000 fold)

Same assay, conditions: MHB+0.9% NaCl pH 6.5; peptide 5 μM; 3 h

Substance	Antibacterial activity Staphylococcus aureus NaCl 6.5
RRWVQRWIRRWRPKLQKKGI-NH2 [SEQ ID NO: 16]	0
APKAMRRWVQRWIRRWRPRLQKKGI-NH2 [SEQ ID NO: 19]	0
APKAMWVQRWIRRWRPLQKKGI-NH2 [SEQ ID NO: 27]	0
RRWVQRWIRRWRPKVLQKKGI-NH2 [SEQ ID NO: 14]	0
RRWVQRWIRRWRKPV-NH2 [SEQ ID NO: 5, RRWVQRWIRRWRKPV]	0
RRWVQRWIRRWRPKVLQKKGI [SEQ ID NO: 15]	0
RRWVQRWIRRWRPKV-NH2 [SEQ ID NO: 3, RRWVQRWIRRWRPKV]	0

Same assay, conditions: MHB+0.9% NaCl pH 7.4; peptide 5 μM; 3 h

Substance	Antibacterial activity Staphylococcus aureus NaCl 7.4
RRWVQRWIRRWRPKLQKKGI-NH2 [SEQ ID NO: 16]	0
APKAMRRWVQRWIRRWRPRLQKKGI-NH2 [SEQ ID NO: 19]	0
APKAMWVQRWIRRWRPLQKKGI-NH2 [SEQ ID NO: 27]	0
RRWVQRWIRRWRPKVLQKKGI-NH2 [SEQ ID NO: 14]	0
RRWVQRWIRRWRKPV-NH2 [SEQ ID NO: 5, RRWVQRWIRRWRKPV]	0
RRWVQRWIRRWRPKVLQKKGI [SEQ ID NO: 15]	0
RRWVQRWIRRWRPKV-NH2 [SEQ ID NO: 3, RRWVQRWIRRWRPKV]	0
